Results: the supplement of paper PMC4604168 (melanoma cell lines)
This is one part of the list. Repeats are few or missing, and single values can be far off.

Each compound was assayed on C32 (assay: cell count relative to DMSO control; melanoma cells; higher = more viable cells). Details: library dose: low library concentration; 72 h.
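Note: cell number obtained by counting DAPI-stained nuclei in high-throughput microscope images with image analysis software, screen run in 1,536-well plates.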

SMILES	cell count [%]
C=CCNC1=C2C[C@@H](C)C[C@H](OC)[C@H](O)[C@@H](C)/C=C(\C)[C@H](OC(N)=O)[C@@H](OC)/C=C\C=C(/C)C(=O)NC(=CC1=O)C2=O [Tanespimycin] + Cn1cc(/C=C2\C(=O)Nc3cccnc32)c2ccccc21 [GW441756] (first compound 0.002 µM, partner dose 0.4 µM)	57.3
CNC(=O)c1cc(Oc2ccc(NC(=O)Nc3ccc(Cl)c(C(F)(F)F)c3)cc2)ccn1 [sorafenib] + c1cc(-c2cnn3cc(-c4ccc(OCCN5CCCCC5)cc4)cnc23)ccn1 [Dorsomorphin] (first compound 0.4 µM, partner dose 0.4 µM)	86.2
C[C@@H](Oc1cc(-c2cnn(C3CCNCC3)c2)cnc1N)c1c(Cl)ccc(F)c1Cl [Crizotinib] + COc1cc(N2CCC(N3CCN(C)CC3)CC2)ccc1Nc1ncc(Cl)c(Nc2ccccc2S(=O)(=O)C(C)C)n1 [NVP-TAE684] (first compound 0.2 µM, partner dose 0.08 µM)	87.5
CNC(=O)c1cc(Oc2ccc(NC(=O)Nc3ccc(Cl)c(C(F)(F)F)c3)cc2)ccn1 [sorafenib] + CCCCCCCCCCCC1=C(O)C(=O)C=C(O)C1=O [Embelin] (first compound 0.4 µM, partner dose 1.2 µM)	112
CS(=O)(=O)CCNCc1ccc(-c2ccc3ncnc(Nc4ccc(OCc5cccc(F)c5)c(Cl)c4)c3c2)o1 [lapatinib] + O=C(Nc1ccccc1)c1cc([N+](=O)[O-])ccc1Cl [GW9662] (first compound 0.8 µM, partner dose 2 µM)	94.3
CS(=O)(=O)CCNCc1ccc(-c2ccc3ncnc(Nc4ccc(OCc5cccc(F)c5)c(Cl)c4)c3c2)o1 [lapatinib] + COc1ccc2c(c1)CCC1C2CCC2(C)C(NCCCCCCN3C(=O)C=CC3=O)CCC12 [U73122] (first compound 0.8 µM, partner dose 0.4 µM)	107
CNC(=O)c1cc(Oc2ccc(NC(=O)Nc3ccc(Cl)c(C(F)(F)F)c3)cc2)ccn1 [sorafenib] + O=C(Nc1ccccc1)c1cc([N+](=O)[O-])ccc1Cl [GW9662] (first compound 0.4 µM, partner dose 2 µM)	83.4
CS(=O)(=O)CCNCc1ccc(-c2ccc3ncnc(Nc4ccc(OCc5cccc(F)c5)c(Cl)c4)c3c2)o1 [lapatinib] + COc1ccc(-c2ccc3c(N4CCOCC4)nc(N4C[C@@H](C)O[C@@H](C)C4)nc3n2)cc1CO [KU0063794] (first compound 0.8 µM, partner dose 0.02 µM)	102
CS(=O)(=O)CCNCc1ccc(-c2ccc3ncnc(Nc4ccc(OCc5cccc(F)c5)c(Cl)c4)c3c2)o1 [lapatinib] + O=C1NC(=O)/C(=C/c2ccc(-c3ccc(F)cc3O)o2)S1 [AS252424] (first compound 0.8 µM, partner dose 1 µM)	96.7
CNC(=O)c1cc(Oc2ccc(NC(=O)Nc3ccc(Cl)c(C(F)(F)F)c3)cc2)ccn1 [sorafenib] + COc1cc(N2CCC(N3CCN(C)CC3)CC2)ccc1Nc1ncc(Cl)c(Nc2ccccc2S(=O)(=O)C(C)C)n1 [NVP-TAE684] (first compound 0.4 µM, partner dose 0.08 µM)	101
CN1CCN(c2ccc3nc(-c4c(N)c5c(F)cccc5[nH]c4=O)[nH]c3c2)CC1 [Dovitinib] + COc1cc2ncnc(Nc3ccc(Oc4ccccc4)cc3)c2cc1OC [SrcI1] (first compound 0.1 µM, partner dose 2 µM)	94.7
CN1CCN(c2ccc3nc(-c4c(N)c5c(F)cccc5[nH]c4=O)[nH]c3c2)CC1 [Dovitinib] + CC(C)CCN1c2nc(Nc3cc(F)c(O)c(F)c3)ncc2N(C)C(=O)C1C [BID1870] (first compound 0.1 µM, partner dose 0.2 µM)	102
CN1CCN(c2ccc3nc(-c4c(N)c5c(F)cccc5[nH]c4=O)[nH]c3c2)CC1 [Dovitinib] + O=C1NC(=O)/C(=C/c2ccc(-c3ccc(F)cc3O)o2)S1 [AS252424] (first compound 0.1 µM, partner dose 1 µM)	101
C=CCNC1=C2C[C@@H](C)C[C@H](OC)[C@H](O)[C@@H](C)/C=C(\C)[C@H](OC(N)=O)[C@@H](OC)/C=C\C=C(/C)C(=O)NC(=CC1=O)C2=O [Tanespimycin] + CCN(CC)CCCCNc1ncc2cc(-c3cc(OC)cc(OC)c3)c(NC(=O)NC(C)(C)C)nc2n1 [PD173074] (first compound 0.002 µM, partner dose 0.1 µM)	76
